The whole screen tested about 360,000 compounds, of which about 660 (0.18%) were called active. Inconclusive results, whose numbers are uncertain, are shown with a selection of clear calls. The call rests on the fitted dose curve; in most records, active means well fitted inhibition curve with a large enough effect; inconclusive means small, poorly fitted or top-dose-only effect; inactive means no such curve, though single readings can be large or run the other way. Potencies of inconclusive entries are left out as doubtful fits.
Target: Rap guanine nucleotide exchange factor 4 (Homo sapiens) (UniProt Q8WZA2)
Sequence of UniProt Q8WZA2 (Q8WZA2 whole entry, looked up): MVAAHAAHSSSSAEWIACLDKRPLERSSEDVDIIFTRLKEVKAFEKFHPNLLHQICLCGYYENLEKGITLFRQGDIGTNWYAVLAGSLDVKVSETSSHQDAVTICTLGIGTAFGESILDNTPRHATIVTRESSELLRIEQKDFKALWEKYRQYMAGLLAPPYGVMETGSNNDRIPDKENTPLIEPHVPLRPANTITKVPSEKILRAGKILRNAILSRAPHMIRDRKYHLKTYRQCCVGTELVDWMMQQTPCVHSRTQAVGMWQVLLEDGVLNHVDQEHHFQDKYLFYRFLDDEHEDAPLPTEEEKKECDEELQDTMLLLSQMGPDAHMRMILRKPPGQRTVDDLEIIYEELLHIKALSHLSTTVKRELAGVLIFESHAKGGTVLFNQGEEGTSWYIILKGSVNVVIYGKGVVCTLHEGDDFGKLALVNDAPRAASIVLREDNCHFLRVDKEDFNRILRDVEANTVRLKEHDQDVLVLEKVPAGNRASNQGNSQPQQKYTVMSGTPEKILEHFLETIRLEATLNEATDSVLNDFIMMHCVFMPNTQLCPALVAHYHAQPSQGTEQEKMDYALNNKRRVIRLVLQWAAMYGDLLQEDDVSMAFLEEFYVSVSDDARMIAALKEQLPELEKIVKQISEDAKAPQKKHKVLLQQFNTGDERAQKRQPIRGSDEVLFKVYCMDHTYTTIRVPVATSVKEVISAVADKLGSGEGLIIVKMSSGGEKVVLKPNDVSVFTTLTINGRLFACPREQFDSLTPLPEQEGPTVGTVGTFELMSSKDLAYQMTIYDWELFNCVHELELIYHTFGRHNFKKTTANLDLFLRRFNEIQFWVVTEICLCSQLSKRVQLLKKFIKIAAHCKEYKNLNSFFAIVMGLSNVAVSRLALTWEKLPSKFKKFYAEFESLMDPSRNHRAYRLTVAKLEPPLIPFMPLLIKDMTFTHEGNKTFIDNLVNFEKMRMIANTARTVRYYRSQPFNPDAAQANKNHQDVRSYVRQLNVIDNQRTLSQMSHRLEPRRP
Test: qHTS for Antagonist of cAMP-regulated guanine nucleotide exchange factor 2 (EPAC2): primary screen; further: nearly all actives have a fitted effect of over 45% in size
Conditions: EPAC2 GEF exchange of Rap1B-BODIPY-GDP, fluorescence; activity, negative = inhibition: at 114 µM (top of the series) unless noted
On the % scale 0 is the no-effect control and ±100 the full control effect; potency means the concentration at half of the fitted maximal effect; tags describe the fitted curve by direction and shape.

Row | Structure (SMILES) | activity, negative = inhibition | Potency
1 | CCOc1cccc(-c2cnc3cccnn23)c1 | inactive: -25.8% | 
2 | O=S(=O)(NC1CCCCC1Oc1ccccc1)c1ccc(Cl)cc1 (stereo not given) |  | inconclusive [inhibitor, partial curve]
3 | O=C(Nc1nnc([C@H]2C[C@H](O)[C@@H](CO)O2)s1)Nc1ccccc1Oc1ccccc1 | inactive: 4.66% | 
4 | O=C(N/N=C/c1ccccn1)c1ccc(NC(=O)c2cccc([N+](=O)[O-])c2)cc1 |  | inconclusive [inhibitor, single point]
5 | COc1cc(OC)c2c(c1)OC(=O)CC2c1cc(OC)c(OC)c(OC)c1 (stereo not given) |  | inconclusive [inhibitor, partial curve]
6 | Cc1ccc(N2C(=O)[C@@H]3[C@H](C2=O)C2c4ccccc4C=CN2[C@@H]3C(=O)c2ccco2)c(C)c1 (stereo not given in full) | inactive: -4.87% | 
7 | CCc1ccc(C(C)NC(=O)c2cccs2)cc1 (stereo not given) |  | inconclusive [inhibitor, single point]
8 | COC(=O)c1ccc2nc(-c3ccc(C)cc3)c(Cc3ccccc3OC)n2c1 |  | inconclusive [inhibitor, single point]
9 | CN(C)c1ccc(P(=O)(COc2ccc([N+](=O)[O-])cc2)c2ccc(N(C)C)cc2)cc1 |  | inconclusive [inhibitor, partial curve]
10 | COCCNC(=O)C1(C)CCCN(Cc2cc(C(F)(F)F)ccc2Cl)C1 (stereo not given) |  | inconclusive [inhibitor, partial curve]
11 | COc1cc(O)c(C(CC(=O)N2CCCC(C)C2)c2ccc3c(c2)OCO3)c(OC)c1 (stereo not given) |  | inconclusive [inhibitor, full curve]
12 | CCCCC(=O)NC(=S)Nc1nnn(CCC)n1 | inactive: 10.1% | 
13 | Cc1nc(-c2ccccc2)sc1C(=O)O | inactive: 2.56% | 
14 | Cn1c(=O)c(C#N)c(-c2ccc(F)cc2)c2cc(C(=O)c3cc(Cl)cc(Cl)c3O)cnc21 |  | active: 50.1 µM
15 | CCOc1c(C=C(C#N)C#N)c2ccccc2n1CC |  | inconclusive [inhibitor, partial curve]
16 | C=CCSC1=C(C#N)C(c2ccc(C(C)C)cc2)CC(=O)N1 (stereo not given) |  | inconclusive [inhibitor, partial curve]
17 | Cc1ccc(S(=O)(=O)C=CS(=O)(=O)c2ccc(C)cc2)cc1 | inactive: -1.82% | 
18 | CC1CCN(C(=O)c2ccc(CNS(=O)(=O)c3ccc(C(C)(C)C)cc3)cc2)CC1 |  | inconclusive [inhibitor, partial curve]
19 | Cn1nnc(NC(=O)c2ccc(Br)o2)n1 | inactive: -2.25% | 
20 | O=C(Cc1ccc(Cl)cc1)N/N=C/c1cccc(O)c1 |  | inconclusive [inhibitor, partial curve]
